The other results are listed elsewhere or left out. No stated cut-off is given here; in the data, active = 3.2 or more and inactive = the rest. Most of these values are background signal.
The binders below were run against SHP2 C-SH2 domain E139D (assay: enrichment score (SH2-bound / input frequency) (ratio); bacterial display of known human phosphotyrosine sites (pTyr-Var adds point mutants) read by sequencing; higher = stronger binding; tyrosines were phosphorylated by kinases first). Conditions: peptide library: Human pTyr.
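Further: displayed peptides selected on beads carrying the immobilized SH2 domain, with library peptides lacking any tyrosine serving as negative controls.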

Enrichment score, inactive:
IRVDTPHYPRWITKE [KPCD_HUMAN_567] 1.46
KEGWMVHYTSKDTLR [KPCD1_HUMAN_432] 1.13
NDTGSRAYKEIPLSE [KPCD1_HUMAN_463_YA] 0.812
TTANVVYYVGENVVN [KPCD1_HUMAN_502] 0.851
TTANVVAYVGENVVN [KPCD1_HUMAN_502_YA] 0.497
KFPECGFYGMYDKIL [KPCD1_HUMAN_95] 1.53
KFPECGFYGMADKIL [KPCD1_HUMAN_95_YA] 1.39
NNTTNRYYKEIPLSE [KPCD2_HUMAN_438] 1.03
SVVGTPAYLAPEVLL [KPCD2_HUMAN_717] 0.56
FAGSPLSYRPVAIAL [KPYR_HUMAN_148] 0.851
TITKTVEYLHAQGVV [KS6A3_HUMAN_529] 1.13
STVSFNPYEPELAPW [KSYK_HUMAN_323] 0.594
TEVYESPYADPEEIR [KSYK_HUMAN_352] 1.06
SELRSAPYEFPEESP [AMPD2_HUMAN_145] 0.551
ALRADENYYKAQTHG [KSYK_HUMAN_525] 0.88
ALRADENYAKAQTHG [KSYK_HUMAN_525_YA] 0.893
VELRLRNYYYDVVNG [KSYK_HUMAN_629] 1.67
ELRLRNAYADVVNGG [KSYK_HUMAN_630_YA] 1.35

The binders below were run against SHP2 C-SH2 domain wild-type in the same assay as above. Conditions: peptide library: Human pTyr.

Enrichment score, inactive:
IRVDTPHYPRWITKE [KPCD_HUMAN_567] 1.34
KEGWMVHYTSKDTLR [KPCD1_HUMAN_432] 1.15
NDTGSRAYKEIPLSE [KPCD1_HUMAN_463_YA] 0.623
TTANVVYYVGENVVN [KPCD1_HUMAN_502] 1.35
TTANVVAYVGENVVN [KPCD1_HUMAN_502_YA] 0.525
KFPECGFYGMYDKIL [KPCD1_HUMAN_95] 1.55
KFPECGFYGMADKIL [KPCD1_HUMAN_95_YA] 1.06
NNTTNRYYKEIPLSE [KPCD2_HUMAN_438] 0.943
SVVGTPAYLAPEVLL [KPCD2_HUMAN_717] 0.658
FAGSPLSYRPVAIAL [KPYR_HUMAN_148] 0.843
TITKTVEYLHAQGVV [KS6A3_HUMAN_529] 0.995
STVSFNPYEPELAPW [KSYK_HUMAN_323] 0.434
TEVYESPYADPEEIR [KSYK_HUMAN_352] 0.83
SELRSAPYEFPEESP [AMPD2_HUMAN_145] 0.63
ALRADENYYKAQTHG [KSYK_HUMAN_525] 0.711
ALRADENYAKAQTHG [KSYK_HUMAN_525_YA] 0.674
VELRLRNYYYDVVNG [KSYK_HUMAN_629] 1.58
ELRLRNAYADVVNGG [KSYK_HUMAN_630_YA] 3.04

Each binder was assayed against SHP2 N-SH2 domain L43F in the same assay as above. Conditions: peptide library: Human pTyr.

Enrichment score, inactive:
IRVDTPHYPRWITKE [KPCD_HUMAN_567] 1.3
KEGWMVHYTSKDTLR [KPCD1_HUMAN_432] 1.12
NDTGSRAYKEIPLSE [KPCD1_HUMAN_463_YA] 0.803
TTANVVYYVGENVVN [KPCD1_HUMAN_502] 0.54
TTANVVAYVGENVVN [KPCD1_HUMAN_502_YA] 0.538
KFPECGFYGMYDKIL [KPCD1_HUMAN_95] 1.74
KFPECGFYGMADKIL [KPCD1_HUMAN_95_YA] 1.41
NNTTNRYYKEIPLSE [KPCD2_HUMAN_438] 0.807
SVVGTPAYLAPEVLL [KPCD2_HUMAN_717] 0.546
FAGSPLSYRPVAIAL [KPYR_HUMAN_148] 0.786
TITKTVEYLHAQGVV [KS6A3_HUMAN_529] 1.05
STVSFNPYEPELAPW [KSYK_HUMAN_323] 0.505
TEVYESPYADPEEIR [KSYK_HUMAN_352] 0.784
SELRSAPYEFPEESP [AMPD2_HUMAN_145] 0.488
ALRADENYYKAQTHG [KSYK_HUMAN_525] 0.656
ALRADENYAKAQTHG [KSYK_HUMAN_525_YA] 0.763
VELRLRNYYYDVVNG [KSYK_HUMAN_629] 1.35
ELRLRNAYADVVNGG [KSYK_HUMAN_630_YA] 0.885

The binders below were run against SHP2 N-SH2 domain T42A in the same assay as above. Conditions: peptide library: Human pTyr.

Enrichment score, inactive:
IRVDTPHYPRWITKE [KPCD_HUMAN_567] 1.45
KEGWMVHYTSKDTLR [KPCD1_HUMAN_432] 0.969
NDTGSRAYKEIPLSE [KPCD1_HUMAN_463_YA] 0.817
TTANVVYYVGENVVN [KPCD1_HUMAN_502] 0.633
TTANVVAYVGENVVN [KPCD1_HUMAN_502_YA] 0.503
KFPECGFYGMYDKIL [KPCD1_HUMAN_95] 1.38
KFPECGFYGMADKIL [KPCD1_HUMAN_95_YA] 1.26
NNTTNRYYKEIPLSE [KPCD2_HUMAN_438] 0.785
SVVGTPAYLAPEVLL [KPCD2_HUMAN_717] 0.539
FAGSPLSYRPVAIAL [KPYR_HUMAN_148] 1.02
TITKTVEYLHAQGVV [KS6A3_HUMAN_529] 1.05
STVSFNPYEPELAPW [KSYK_HUMAN_323] 0.512
TEVYESPYADPEEIR [KSYK_HUMAN_352] 1.08
SELRSAPYEFPEESP [AMPD2_HUMAN_145] 0.703
ALRADENYYKAQTHG [KSYK_HUMAN_525] 0.639
ALRADENYAKAQTHG [KSYK_HUMAN_525_YA] 0.717
VELRLRNYYYDVVNG [KSYK_HUMAN_629] 1.61
ELRLRNAYADVVNGG [KSYK_HUMAN_630_YA] 1.03

The binders below were run against SHP2 N-SH2 domain T52S in the same assay as above. Conditions: peptide library: Human pTyr.

Enrichment score, inactive:
IRVDTPHYPRWITKE [KPCD_HUMAN_567] 1.55
KEGWMVHYTSKDTLR [KPCD1_HUMAN_432] 1.25
NDTGSRAYKEIPLSE [KPCD1_HUMAN_463_YA] 0.799
TTANVVYYVGENVVN [KPCD1_HUMAN_502] 0.662
TTANVVAYVGENVVN [KPCD1_HUMAN_502_YA] 0.522
KFPECGFYGMYDKIL [KPCD1_HUMAN_95] 1.48
KFPECGFYGMADKIL [KPCD1_HUMAN_95_YA] 1.32
NNTTNRYYKEIPLSE [KPCD2_HUMAN_438] 0.929
SVVGTPAYLAPEVLL [KPCD2_HUMAN_717] 0.629
FAGSPLSYRPVAIAL [KPYR_HUMAN_148] 1
TITKTVEYLHAQGVV [KS6A3_HUMAN_529] 0.901
STVSFNPYEPELAPW [KSYK_HUMAN_323] 0.54
TEVYESPYADPEEIR [KSYK_HUMAN_352] 1.07
SELRSAPYEFPEESP [AMPD2_HUMAN_145] 0.721
ALRADENYYKAQTHG [KSYK_HUMAN_525] 0.646
ALRADENYAKAQTHG [KSYK_HUMAN_525_YA] 0.754
VELRLRNYYYDVVNG [KSYK_HUMAN_629] 1.41
ELRLRNAYADVVNGG [KSYK_HUMAN_630_YA] 0.91

These binders were tested against SHP2 N-SH2 domain wild-type in the same assay as above. Conditions: peptide library: Human pTyr.

Enrichment score, inactive:
IRVDTPHYPRWITKE [KPCD_HUMAN_567] 1.51
KEGWMVHYTSKDTLR [KPCD1_HUMAN_432] 1.57
NDTGSRAYKEIPLSE [KPCD1_HUMAN_463_YA] 0.904
TTANVVYYVGENVVN [KPCD1_HUMAN_502] 0.822
TTANVVAYVGENVVN [KPCD1_HUMAN_502_YA] 0.553
KFPECGFYGMYDKIL [KPCD1_HUMAN_95] 1.8
KFPECGFYGMADKIL [KPCD1_HUMAN_95_YA] 1.42
NNTTNRYYKEIPLSE [KPCD2_HUMAN_438] 0.895
SVVGTPAYLAPEVLL [KPCD2_HUMAN_717] 0.67
FAGSPLSYRPVAIAL [KPYR_HUMAN_148] 0.929
TITKTVEYLHAQGVV [KS6A3_HUMAN_529] 1.2
STVSFNPYEPELAPW [KSYK_HUMAN_323] 0.648
TEVYESPYADPEEIR [KSYK_HUMAN_352] 0.945
SELRSAPYEFPEESP [AMPD2_HUMAN_145] 0.661
ALRADENYYKAQTHG [KSYK_HUMAN_525] 0.907
ALRADENYAKAQTHG [KSYK_HUMAN_525_YA] 0.747
VELRLRNYYYDVVNG [KSYK_HUMAN_629] 1.96
ELRLRNAYADVVNGG [KSYK_HUMAN_630_YA] 0.953
